Laboratory results reported in the antibiotic and cytotoxicity screens of Wong et al. (2023).
This is one part of the list.

Tests used:
HSkMC = human skeletal muscle cells; experiment: cytotoxicity call (relative viability < 0.9); details: 10 µM
S. aureus RN4220 = experiment: growth inhibition call (relative growth <= 0.2); details: 50 µM

SMILES	cytotoxicity call (HSkMC)	growth inhibition call (S. aureus RN4220)
COc1cccc(S(=O)(=O)N2C[C@H](O)COC[C@H]3O[C@H](CC(=O)NCCCN4CCOCC4)CC[C@@H]32)c1	inactive	inactive
COc1ccc([Si](C)(C)[C@H]2[C@H](CCO)O[C@@]3(C(=O)N(Cc4ccccc4)c4ccc(N5CCCCC5=O)cc43)[C@@H]2C)cc1	inactive	inactive
Cc1ccc(S(=O)(=O)Nc2ccc3c(c2)C(=O)N([C@H](C)CO)C[C@@H](C)[C@H](CN(C)C(=O)Nc2ccccc2)OCCCC[C@@H](C)O3)cc1	inactive	inactive
C[C@@H]1CN([C@@H](C)CO)C(=O)c2cc(NC(=O)c3ccccc3)ccc2O[C@@H](C)CCCCO[C@H]1CN(C)C(=O)Cc1ccccc1	inactive	inactive
CC(C)NC(=O)Nc1cccc2c1O[C@H](CN(C)S(=O)(=O)c1ccc(F)cc1)[C@@H](C)CN([C@H](C)CO)C2=O	inactive	inactive
COc1cc2c(cc1OC)C(=O)C(CC1CCN(Cc3ccccc3)CC1)C2.Cl (stereo unspecified)	inactive	inactive
C[C@@H]1CCCCO[C@@H](CN(C)C(=O)Nc2ccc(F)cc2)[C@H](C)CN([C@H](C)CO)C(=O)c2cc(NC(=O)Nc3ccc(F)cc3)ccc2O1	inactive	inactive
C[C@@H]1CN([C@H](C)CO)C(=O)c2cc(NC(=O)c3ccncc3)ccc2O[C@H]1CN(C)Cc1ccc2c(c1)OCO2	inactive	inactive
C[C@@H]1CN([C@@H](C)CO)C(=O)c2cc(NC(=O)CCCN(C)C)ccc2O[C@@H]1CN(C)S(=O)(=O)c1ccc(F)cc1	inactive	inactive
OC[C@H]1O[C@H](C#Cc2ccccc2)C=C[C@@H]1O	inactive	inactive
C[C@@H]1O[C@@H](O[C@@H]2CC[C@@]3(C)[C@@H](CC[C@]4(C)[C@@H]3CC=C3[C@@H]5CC(C)(C)CC[C@]5(C(=O)O[C@@H]5O[C@H](CO[C@@H]6O[C@H](CO)[C@@H](O)[C@H](O)[C@H]6O)[C@@H](O)[C@H](O)[C@H]5O)CC[C@]34C)[C@]2(C)CO)[C@H](O)[C@H](O[C@@H]2OC[C@@H](O)[C@H](O)[C@H]2O)[C@H]1O	inactive	inactive
C[C@H](O)C#Cc1ccc2c(c1)O[C@H](CN(C)C(=O)c1ccccc1)[C@H](C)CN([C@@H](C)CO)S2(=O)=O	inactive	inactive
Cc1noc(C)c1S(=O)(=O)Nc1ccc2c(c1)C(=O)N([C@H](C)CO)C[C@@H](C)[C@H](CN(C)CC1CCCCC1)OCCCC[C@@H](C)O2	inactive	inactive
C/N=C1\S[C@@H](CC(=O)NC(C)C)C(=O)N1C	inactive	inactive
COc1ccc(CN(C)C[C@@H]2OCCCC[C@H](C)Oc3ccc(NC(=O)Nc4ccc5c(c4)OCO5)cc3C(=O)N([C@@H](C)CO)C[C@H]2C)cc1	inactive	inactive
O=C(Cc1ccccc1)Nc1ccccc1Sc1ccccc1	inactive	inactive
C[C@H]1CN([C@@H](C)CO)C(=O)c2cccc(NC(=O)NC3CCCCC3)c2O[C@@H]1CN(C)Cc1ccc(Oc2ccccc2)cc1	inactive	inactive
C[C@H]1CN([C@@H](C)CO)C(=O)Cc2cc(NC(=O)Nc3ccc(C(F)(F)F)cc3)ccc2O[C@@H]1CN(C)Cc1ccccc1	inactive	inactive
O=C(O)C(O)C(O)C(OC1OC(CO)C(O)C(O)C1O)C(O)CO (stereo unspecified)	inactive	inactive
C[C@@H]1CN([C@H](C)CO)C(=O)Cc2cc(NC(=O)C3CC3)ccc2O[C@H]1CN(C)C(=O)Nc1ccccc1	inactive	inactive

SMILES	cytotoxicity call (HSkMC)	growth inhibition call (S. aureus RN4220)
NCc1c[nH]nc1-c1ccccc1	inactive	inactive
C[C@@H]1CN([C@H](C)CO)C(=O)c2cccc(NS(=O)(=O)c3ccccc3)c2O[C@@H]1CN(C)S(=O)(=O)c1ccccc1	inactive	inactive
COc1ccccc1S(=O)(=O)N(C)C[C@@H]1Oc2c(NC(=O)Nc3cccc4ccccc34)cccc2C(=O)N([C@@H](C)CO)C[C@H]1C	inactive	inactive
CCCNC(=O)N1C[C@]2(CCN(CC2)S(=O)(=O)c2ccc(cc2)OC)c2c(n(c3cc(ccc23)OC)C)[C@H]1CO	inactive	inactive
C[C@@H]1CN([C@@H](C)CO)C(=O)c2ccccc2-c2ccccc2CO[C@@H]1CN(C)S(=O)(=O)c1cn(C)cn1	inactive	inactive
C[C@@H]1CCCCO[C@@H](CN(C)Cc2ccc(C(=O)O)cc2)[C@H](C)CN([C@H](C)CO)C(=O)c2cc(NS(=O)(=O)c3ccccc3)ccc2O1	inactive	inactive
C[C@@H]1CCCCO[C@H](CN(C)C(=O)NC2CCCCC2)[C@H](C)CN([C@@H](C)CO)C(=O)c2cc(NS(=O)(=O)c3ccc(Cl)cc3)ccc2O1	inactive	inactive
C[C@@H]1CN([C@@H](C)CO)C(=O)Cc2cc(NS(=O)(=O)c3cccs3)ccc2O[C@H]1CN(C)Cc1ccncc1	inactive	inactive
C[C@@H]1CN([C@H](C)CO)C(=O)c2cc(NC(=O)CCCN(C)C)ccc2O[C@@H]1CN(C)S(=O)(=O)c1cccs1	inactive	inactive
C[C@@H]1CN([C@H](C)CO)C(=O)Cc2cc(NC(=O)NC3CCCCC3)ccc2O[C@H]1CN(C)S(=O)(=O)c1cn(C)cn1	inactive	inactive
C[C@@H]1CN([C@H](C)CO)C(=O)CCCn2nncc2CO[C@@H]1CN(C)C(=O)c1ccc(N2CCN(C)CC2)cc1	inactive	inactive
C[C@@H]1CCCCO[C@@H](CN(C)S(=O)(=O)c2ccc(Cl)cc2)[C@@H](C)CN([C@@H](C)CO)C(=O)c2cc(NC(=O)Nc3ccc(C(F)(F)F)cc3)ccc2O1	inactive	inactive
Cc1noc(C)c1S(=O)(=O)Nc1cccc2c1O[C@@H](CN(C)Cc1ccncc1)[C@@H](C)CN([C@@H](C)CO)C2=O	inactive	inactive
C=CCOC[C@H]1NCCc2c1nnn2CC	inactive	inactive
Cn1nc(CN2CCCC2=O)c2c1CNC2	inactive	inactive
Cc1noc(C)c1S(=O)(=O)Nc1ccc2c(c1)C(=O)N([C@H](C)CO)C[C@@H](C)[C@@H](CN(C)Cc1ccc(C(=O)O)cc1)O2	inactive	inactive
C[C@H]1CCCCO[C@H](CN(C)C(=O)C2CCCCC2)[C@@H](C)CN([C@@H](C)CO)C(=O)c2cc(NC(=O)Nc3ccc(C(F)(F)F)cc3)ccc2O1	active	inactive
C[C@H](CO)N1C[C@H](C)[C@@H](CN(C)Cc2ccc3c(c2)OCO3)Oc2ccc(NS(=O)(=O)c3ccccc3)cc2CC1=O	inactive	inactive
COc1ccccc1C(=O)Nc1ccc2c(c1)C(=O)N(C)[C@H]1CC[C@@H](CC(=O)NCCc3ccncc3)O[C@H]1CO2	inactive	inactive
C[C@H]1CN([C@@H](C)CO)C(=O)c2ccccc2-c2ccccc2CO[C@H]1CN(C)C(=O)Nc1cccc(C(F)(F)F)c1	inactive	inactive

SMILES	cytotoxicity call (HSkMC)	growth inhibition call (S. aureus RN4220)
O=C1C[C@@H](c2ccc(O[C@@H]3O[C@H](CO)[C@@H](O)[C@H](O)[C@H]3O)cc2)Oc2cc(O)ccc21	inactive	inactive
COc1ccc(S(=O)(=O)N2C[C@H](O)COC[C@H]3O[C@@H](CC(=O)NCCCN(C)C)CC[C@@H]32)cc1	inactive	inactive
C[C@@H]1CN([C@H](C)CO)C(=O)c2cccc(NC(=O)Nc3ccccc3)c2O[C@@H]1CN(C)Cc1ccc(C(=O)Nc2ccccc2N)cc1	inactive	inactive
COc1ccc(NC(=O)Nc2ccc3c(c2)C(=O)N([C@@H](C)CO)C[C@@H](C)[C@@H](CN(C)C(=O)C2CCCCC2)OCCCC[C@H](C)O3)cc1	inactive	inactive
COc1ccc([Si](C)(C)[C@@H]2[C@@H](CCOC(=O)NCCCCCC(=O)NO)O[C@]3(C(=O)N(Cc4ccccc4)c4ccc(I)cc43)[C@H]2C)cc1	inactive	inactive
Cc1noc(C)c1NC(=O)N[C@H]1C=C[C@H](CC(=O)N2CCN(C)CC2)O[C@@H]1CO	inactive	inactive
Cc1ccc(S(=O)(=O)Nc2ccc3c(c2)C(=O)N([C@H](C)CO)C[C@H](C)[C@@H](CN(C)S(C)(=O)=O)OCCCC[C@@H](C)O3)cc1	inactive	inactive
C[C@H]1CN([C@@H](C)CO)C(=O)c2cc(-c3cncnc3)cnc2O[C@H]1CN(C)C(=O)CN1CCOCC1	inactive	inactive
O=C(C[C@@H]1C[C@H]2c3cc(NS(=O)(=O)c4ccc(F)cc4)ccc3O[C@H]2[C@H](CO)O1)NCc1ccccc1F	inactive	inactive
CCS(=O)(=O)Nc1ccc2c(c1)C(=O)N(C)[C@H]1CC[C@H](CC(=O)N[C@@H]3CCN(Cc4ccccc4)C3)O[C@H]1CO2	inactive	inactive
CC(C)=CCCC(C)=CCOc1ccc2ccc(=O)oc2c1	inactive	inactive
O=C(O)CC[C@H]1CCC(=O)N1	inactive	inactive
CCCN(C)C[C@H]1OCCCC[C@@H](C)Oc2ccc(NS(=O)(=O)c3cn(C)cn3)cc2C(=O)N([C@@H](C)CO)C[C@@H]1C	inactive	inactive
CC(C)NC(=O)Nc1ccc2c(c1)C(=O)N([C@@H](C)CO)C[C@H](C)[C@@H](CN(C)C(=O)Nc1ccccc1)OCCCC[C@@H](C)O2	inactive	inactive
Cc1noc(C)c1NC(=O)Nc1ccc2c(c1)CC(=O)N([C@H](C)CO)C[C@H](C)[C@@H](CN(C)Cc1ccc(Oc3ccccc3)cc1)O2	inactive	inactive
COc1ccc([Si](C)(C)[C@@H]2[C@@H](CCO)O[C@]3(C(=O)N(Cc4ccc(N5C(=O)c6cccc7cccc5c67)cc4)c4ccccc43)[C@H]2C)cc1	inactive	inactive
COCCNC(=O)C[C@H]1CC[C@@H](NS(=O)(=O)c2ccc(C)cc2)[C@@H](CO)O1	inactive	inactive
CN1C(=O)c2cc(NC(=O)Cc3cccs3)ccc2OC[C@H]2O[C@@H](CC(=O)NCc3ccc(-c4ccccc4)cc3)CC[C@@H]21	inactive	inactive
